Measured values from PubChem BioAssay AID504832 (National Center for Advancing Translational Sciences (NCATS), 2011).
About 18,000 (5.8%) of roughly 310,000 compounds were called active. Inconclusive results, whose numbers are uncertain, are shown with a selection of clear calls. The call rests on the fitted dose curve; in most records, active means well fitted inhibition curve with a large enough effect; inconclusive means small, poorly fitted or top-dose-only effect, or another doubt; inactive means no such curve, though single readings can be large or run the other way. Potencies of inconclusive entries are left out as doubtful fits.
Potency means the concentration at half of the fitted maximal effect; tags describe the fitted curve by direction and shape.

Assay: Primary qHTS for delayed death inhibitors of the malarial parasite plastid, 48 hour incubation
Conditions: P. falciparum luciferase growth in erythrocytes; series mostly up to 28.7 µM
Method in brief: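 Read-out is firefly luciferase luminescence from an integrated reporter in P. falciparum, so falling signal marks reduced parasite growth. Infected erythrocytes were at 2% hematocrit and 0.1% parasitemia (final) in Albumax-supplemented RPMI 1640.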
With `COC(=O)[C@@H]1C[C@H]2CC[C@H](O)C[C@H]2N1Cc1ccccc1OS(=O)(=O)c1ccc(C)cc1` the Potency was active: 10.4 µM. For `CCCn1nc(C(=O)NNC(=O)CCCOc2ccc(OC)cc2)c2ccccc2c1=O`, the Potency was inconclusive [inhibitor, single point]. For `COc1ccccc1NC(=O)CS(=O)(=O)c1cn(CC(=O)N2CCOCC2)c2ccccc12`, the Potency was “inactive”. In the case of `COc1ccccc1CNC(=O)CCn1c(=O)[nH]c2ccsc2c1=O`, the Potency is reported as active: 1.04 µM. With `CCN(C(=O)COC(=O)c1[nH]c(C)c(C(C)=O)c1C)C1CCS(=O)(=O)C1` (configuration not stated) the Potency was inconclusive [inhibitor, partial curve, poor fit]. In the case of `CCCN(C(=O)Cc1coc2cc(C)c(C)cc12)c1c(N)n(Cc2ccccc2)c(=O)[nH]c1=O`, the Potency is reported as inconclusive [inhibitor, single point]. In the case of `CN(c1ccccc1)S(=O)(=O)c1ccc(Cl)c(C(=O)NCCc2c[nH]c3ccccc23)c1`, the Potency is reported as inconclusive [inhibitor, single point]. In the case of `CCOC(=O)N1CCN(C(=O)c2ccc(CS(=O)c3ccccc3)o2)CC1` (configuration not stated), the Potency is reported as “inactive”. For `COc1cccc(NC(=S)NCc2ccc3c(c2)cc(C)n3C)c1`, the Potency was “inactive”. With `N#CCSc1nc2cc(C(=O)N3CCC(C(N)=O)CC3)ccc2c2nc3ccccc3n12` the Potency was inconclusive [inhibitor, partial curve, poor fit]. In the case of `Cc1ccc(-c2nn(-c3ccccc3)cc2C(=O)NCC(c2cccs2)N2CCOCC2)cc1` (configuration not stated), the Potency is reported as inconclusive [inhibitor, single point]. For `OC(CNCc1ccc2c(c1)OCO2)COc1ccccc1` (configuration not stated), the Potency was active: 3.29 µM. With `Nc1nnc(CC(=O)N/N=C/c2cccc(OCCOc3ccccc3)c2)s1` the Potency was “inactive”. With `C=CCn1c(SCc2nc3scc(-c4ccccc4)c3c(=O)[nH]2)nnc1-c1ccccc1F` the Potency was inconclusive [inhibitor, partial curve, poor fit]. With `Cc1ccc(S(=O)(=O)N2CCOCC2)cc1NC(=O)COC(=O)CCOc1ccc(C(C)(C)C)cc1` the Potency was “inactive”. With `CNC(C)Cc1ccccc1Sc1ccc(O)cc1` (configuration not stated) the Potency was inconclusive [inhibitor, partial curve, poor fit]. With `COc1ccc(CNC(C)C23CC4CC(CC(C4)C2)C3)c(OC)c1OC` (configuration not stated) the Potency was active: 11.7 µM. For `Cc1cc(=O)n2nc(N3CCCC(C(=O)NCc4ccccc4Cl)C3)sc2n1` (configuration not stated), the Potency was inconclusive [inhibitor, partial curve, poor fit]. In the case of `CC(C)CCc1noc(CN(CC2CCC2)CC2CCCO2)n1` (configuration not stated), the Potency is reported as inconclusive [inhibitor, single point]. In the case of `CCOC(=O)C1=C(c2ccccc2)NC(=O)NC1c1cc(Br)c(O)c(OC)c1` (configuration not stated), the Potency is reported as inconclusive [inhibitor, partial curve]. In the case of `CCCSC1=C(C#N)C(c2ccc(Cl)cc2Cl)CC(=O)N1` (configuration not stated), the Potency is reported as inconclusive [inhibitor, single point]. With `Cc1ccc(-c2nc3ccccc3[nH]2)cc1NC(=O)c1sc2cc(Cl)ccc2c1Cl` the Potency was active: 3.29 µM. With `Cc1cc(C)n(-c2nc(Nc3ccccc3)nc(-n3nc(C)cc3C)n2)n1` the Potency was inconclusive [inhibitor, full curve]. For `O=C(CNC(=O)Cc1cccc2ccccc12)NCc1ccccc1F`, the Potency was inconclusive [inhibitor, partial curve, poor fit]. For `CC(OC(=O)c1ccc(C#N)cc1)C(=O)Nc1ccc(Cl)cn1` (configuration not stated), the Potency was inconclusive [inhibitor, single point]. For `CCC(C)N(C)C(=O)c1cc2ccccc2c(-c2ccccc2Cl)n1` (configuration not stated), the Potency was inconclusive [inhibitor, single point]. In the case of `CCOc1ncnc2c1oc1nc(CC(C)C)c3c(c12)CC(C)(C)OC3`, the Potency is reported as inconclusive [inhibitor, single point]. For `Cc1ccc(C)c(OCCCC(=O)Nc2ccccc2C(N)=O)c1`, the Potency was inconclusive [inhibitor, partial curve]. With `COc1ccc(CN2CCCC(C(=O)c3ccc(Cl)cc3)C2)cc1Cn1cncn1` (configuration not stated) the Potency was inconclusive [inhibitor, partial curve]. For `Cc1cccc([C@H](C)c2cnc[nH]2)c1C`, the Potency was inconclusive [inhibitor, single point]. With `CC1(C(=O)Nc2ccccc2)Cc2ccccc2C(=O)O1` (configuration not stated) the Potency was “inactive”. With `CN(C)CCCn1c2c(c(SCC(=O)Nc3nccs3)nc1=O)CCC2` the Potency was “inactive”. For `Cc1cc(C)nc(SCc2nnc(SCC(N)=O)o2)n1`, the Potency was “inactive”. With `NS(=O)(=O)c1ccc(NC(=S)Nc2ccn(Cc3cccc4ccccc34)n2)cc1` the Potency was inconclusive [inhibitor, single point]. In the case of `O=C(N/N=C/c1ccncc1)c1ccc(NC(=O)c2ccc(Cl)cc2)cc1`, the Potency is reported as inconclusive [inhibitor, partial curve, poor fit]. With `COc1cccc(Cn2ncc3c4sc(B(O)O)cc4n(C)c3c2=O)c1` the Potency was inconclusive [inhibitor, partial curve, poor fit]. For `COc1ccc(-c2cc(-c3n[nH]c(=S)n3-c3cc(OC)ccc3OC)[nH]n2)cc1`, the Potency was “inactive”. For `CC(C)C(c1nnnn1C1CCCC1)N1CCN(C(=O)c2ccco2)CC1` (configuration not stated), the Potency was inconclusive [inhibitor, partial curve, poor fit]. With `Clc1ccc(CN2C3=NCCCN3c3ccccc32)cc1` the Potency was inconclusive [inhibitor, partial curve, poor fit]. For `O=[N+]([O-])c1ccc(S(=O)(=O)NCCS(=O)(=O)N2CCN(c3ccccc3)CC2)cc1`, the Potency was inconclusive [inhibitor, single point]. In the case of `COc1ccc(C(=O)Nc2c(-c3ccccc3)nc3ccccn23)c(OC)c1`, the Potency is reported as inconclusive [inhibitor, partial curve]. For `O=S(=O)(NCCCNS(=O)(=O)c1c(F)cccc1F)c1ccc2c(c1)OCCO2`, the Potency was “inactive”. For `CCC(Sc1nc(C)cc(C)n1)C(=O)NC1=NN=C(c2ccc(C)cc2)CS1` (configuration not stated), the Potency was inconclusive [inhibitor, single point]. For `Cc1ncc(CN2CCCC(C(=O)Nc3ccc(-c4cccc(F)c4)cc3)C2)n1C` (configuration not stated), the Potency was active: 14.7 µM. In the case of `C/C(=N/NC(=O)c1ccc(Br)o1)C(C)C`, the Potency is reported as “inactive”. In the case of `CC(OC(=O)CC(C)c1ccccc1)C(=O)Nc1ccc(Cl)cn1` (configuration not stated), the Potency is reported as inconclusive [inhibitor, single point]. In the case of `Cc1ccccc1C(=O)N1CCN(c2ccc(NC(=S)NC(=O)c3ccco3)cc2)CC1`, the Potency is reported as inconclusive [inhibitor, single point]. For `COc1cc([N+](=O)[O-])ccc1NC(=O)Cc1ccc(C)cc1`, the Potency was inconclusive [inhibitor, single point]. For `O=C(CNC(=O)c1cccs1)Nc1ccncc1`, the Potency was “inactive”. With `C=CCn1c(Sc2ncc([N+](=O)[O-])s2)n[nH]c1=O` the Potency was inconclusive [inhibitor, single point]. In the case of `C=CCCC(=O)Nc1nc(C)c(-c2csc(Nc3cc(Cl)ccc3OC)n2)s1`, the Potency is reported as inconclusive [inhibitor, partial curve, poor fit]. In the case of `CC(=O)c1c(C)[nH]c(C(=O)NC2CCSc3ccccc32)c1C` (configuration not stated), the Potency is reported as “inactive”. With `COc1cc2c(cc1OC)C(=S)NC1(CCCC1)C2` the Potency was inconclusive [inhibitor, partial curve, poor fit]. For `O=C(CSc1ccc2nnc(CCNC(=O)c3ccccc3)n2n1)NCc1ccc(F)cc1`, the Potency was inconclusive [inhibitor, single point]. With `Cc1cccn2c(=O)nc(SCC(=O)N3CCC(Cc4ccccc4)CC3)nc12` the Potency was inconclusive [inhibitor, full curve]. With `CCN(C(=O)Cc1ccc(Br)cc1)C1CCCCC1` the Potency was “inactive”. In the case of `CCOc1cc(Br)c(COc2ccc(C)nc2[N+](=O)[O-])cc1OCC`, the Potency is reported as inconclusive [inhibitor, single point]. In the case of `CN(C)c1ccc(S(=O)(=O)N2CCCCC2)cc1NC(=O)CCNC(=O)c1ccco1`, the Potency is reported as active: 11.7 µM. With `Cc1ccc(NC2CCCCC2NS(=O)(=O)c2ccccc2)c(C)c1` (configuration not stated) the Potency was inconclusive [inhibitor, single point]. In the case of `CC1CCN(S(=O)(=O)c2ccc3c(c2)N(CC(=O)NCCCN2CCCC(C)C2)C(=O)CS3)CC1` (configuration not stated), the Potency is reported as inconclusive [inhibitor, partial curve]. With `CC(C)c1ccccc1OCCNC(=S)NC(=O)c1cccnc1` the Potency was inconclusive [inhibitor, partial curve]. With `CC1(C)CC(=O)C(C=Nc2ccccc2Sc2ccccc2)=C(O)C1` the Potency was “inactive”. With `CC(C)CN(CC(C)C)CC(O)CN(c1ccccc1)S(=O)(=O)c1ccccc1[N+](=O)[O-]` (configuration not stated) the Potency was inconclusive [inhibitor, partial curve]. With `Cc1ccc2c(c1)-c1ncc(C(=O)c3cc(Br)ccc3O)cc1CO2` the Potency was active: 1.65 µM. For `CCN(CC)S(=O)(=O)c1ccc(N2CCOCC2)c(NS(=O)(=O)c2ccc(C)cc2)c1`, the Potency was inconclusive [inhibitor, single point]. For `O=C(Nc1ccc(-c2nc3ccccc3[nH]2)cc1)c1ccco1`, the Potency was “inactive”. For `Cc1ccccc1NS(=O)(=O)c1ccc2c3c(cccc13)C(=O)N2C`, the Potency was inconclusive [inhibitor, single point].
